{"source": "the GPR68 mutational scans of Howard et al. (2025)", "parents": {"B1": {"name": "GPR68, Q15743 (parent)", "chain": "MGNITADNSSMSCTIDHTIHQTLAPVVYVTVLVVGFPANCLSLYFGYLQIKARNELGVYLCNLTVADLFYICSLPFWLQYVLQHDNWSHGDLSCQVCGILLYENIYISVGFLCCISVDRYLAVAHPFRFHQFRTLKAAVGVSVVIWAKELLTSIYFLMHEEVIEDENQHRVCFEHYPIQAWQRAINYYRFLVGFLFPICLLLASYQGILRAVRRSHGTQKSRKDQIQRLVLSTVVIFLACFLPYHVLLLVRSVWEASCDFAKGVFNAYHFSLLLTSFNCVADPVLYCFVSETTHRDLARLRGACLAFLTCSRTGRAREAYPLGAPEASGKSGAQGEEPELLTKLHPAFQTPNSPGSGGFPTGRLA"}}, "key": {"[1]": {"variants_of": "B1", "assay": "cAMP reporter score (Enrich2 score, wild type = 0); higher = more signal; HEK293T, FACS bins"}, "[2]": {"variants_of": "B1", "assay": "surface expression score (Enrich2 score, wild type = 0); higher = more signal; HEK293T, FACS bins"}}, "note": "Scores with a large standard error are left out. Not listed are two conditions whose scores span a narrow range. Names with del lack the residues named; names with ins carry added residues between the positions named. For some assays here: How much ogerin was present is not stated here.", "data": [{"variant": "MGNITADNSSMSCTIDHTIHQTLAPVVYVTVLVVGFPANCLSLYFGYLQIKARNELGVYLCNLTVADLFYICSLPFWLQYVLQHDNWSHGDLSCQVCGILLYENIYISVGFLCCISVDRYLAVAHPFRFHQFRTLKAAVGVSVVIWAKELLTSIYFLMHEEVIEDENQHRVCFEHYPIQAWQRAINYYRFLVGFLFPICLLLASYQGILRAVRRSHGTQKSRKDQIQRLVLSTVVIFLACFLPYHVLLLVRSVWEASCDFAKGVFNAYHFSLLLTSFNCVADPVLYCFVSETTHRDLARLRGASLAFLTCSRTGRAREAYPLGAPEASGKSGAQGEEPELLTKLHPAFQTPNSPGSGGFPTGRLA", "note": "[C304S]", "values": [{"measurement": "cAMP reporter score", "setting": "[1]; pH 5.5", "value": -0.453}, {"measurement": "cAMP reporter score", "setting": "[1]; pH 6", "value": -0.615}, {"measurement": "cAMP reporter score", "setting": "[1]; pH 6, modulator: ogerin", "value": -0.201}, {"measurement": "cAMP reporter score", "setting": "[1]; pH 6.5, modulator: ogerin", "value": -0.567}, {"measurement": "surface expression score", "setting": "[2]", "value": -0.414}]}, {"variant": "MGNITADNSSMSCTIDHTIHQTLAPVVYVTVLVVGFPANCLSLYFGYLQIKARNELGVYLCNLTVADLFYICSLPFWLQYVLQHDNWSHGDLSCQVCGILLYENIYISVGFLCCISVDRYLAVAHPFRFHQFRTLKAAVGVSVVIWAKELLTSIYFLMHEEVIEDENQHRVCFEHYPIQAWQRAINYYRFLVGFLFPICLLLASYQGILRAVRRSHGTQKSRKDQIQRLVLSTVVIFLACFLPYHVLLLVRSVWEASCDFAKGVFNAYHFSLLLTSFNCVADPVLYCFVSETTHRDLARLRGATLAFLTCSRTGRAREAYPLGAPEASGKSGAQGEEPELLTKLHPAFQTPNSPGSGGFPTGRLA", "note": "[C304T]", "values": [{"measurement": "cAMP reporter score", "setting": "[1]; pH 5.5", "value": 0.367}, {"measurement": "cAMP reporter score", "setting": "[1]; pH 6", "value": 0.24}, {"measurement": "cAMP reporter score", "setting": "[1]; pH 6, modulator: ogerin", "value": 1.06}, {"measurement": "cAMP reporter score", "setting": "[1]; pH 6.5, modulator: ogerin", "value": -0.07}, {"measurement": "surface expression score", "setting": "[2]", "value": 0.19}]}, {"variant": "MGNITADNSSMSCTIDHTIHQTLAPVVYVTVLVVGFPANCLSLYFGYLQIKARNELGVYLCNLTVADLFYICSLPFWLQYVLQHDNWSHGDLSCQVCGILLYENIYISVGFLCCISVDRYLAVAHPFRFHQFRTLKAAVGVSVVIWAKELLTSIYFLMHEEVIEDENQHRVCFEHYPIQAWQRAINYYRFLVGFLFPICLLLASYQGILRAVRRSHGTQKSRKDQIQRLVLSTVVIFLACFLPYHVLLLVRSVWEASCDFAKGVFNAYHFSLLLTSFNCVADPVLYCFVSETTHRDLARLRGAVLAFLTCSRTGRAREAYPLGAPEASGKSGAQGEEPELLTKLHPAFQTPNSPGSGGFPTGRLA", "note": "[C304V]", "values": [{"measurement": "cAMP reporter score", "setting": "[1]; pH 5.5", "value": 0.629}, {"measurement": "cAMP reporter score", "setting": "[1]; pH 6", "value": 0.474}, {"measurement": "cAMP reporter score", "setting": "[1]; pH 6, modulator: ogerin", "value": 1.1}, {"measurement": "cAMP reporter score", "setting": "[1]; pH 6.5, modulator: ogerin", "value": 0.701}, {"measurement": "surface expression score", "setting": "[2]", "value": 0.489}]}, {"variant": "MGNITADNSSMSCTIDHTIHQTLAPVVYVTVLVVGFPANCLSLYFGYLQIKARNELGVYLCNLTVADLFYICSLPFWLQYVLQHDNWSHGDLSCQVCGILLYENIYISVGFLCCISVDRYLAVAHPFRFHQFRTLKAAVGVSVVIWAKELLTSIYFLMHEEVIEDENQHRVCFEHYPIQAWQRAINYYRFLVGFLFPICLLLASYQGILRAVRRSHGTQKSRKDQIQRLVLSTVVIFLACFLPYHVLLLVRSVWEASCDFAKGVFNAYHFSLLLTSFNCVADPVLYCFVSETTHRDLARLRGAWLAFLTCSRTGRAREAYPLGAPEASGKSGAQGEEPELLTKLHPAFQTPNSPGSGGFPTGRLA", "note": "[C304W]", "values": [{"measurement": "cAMP reporter score", "setting": "[1]; pH 5.5", "value": -0.392}, {"measurement": "cAMP reporter score", "setting": "[1]; pH 6", "value": -0.555}, {"measurement": "cAMP reporter score", "setting": "[1]; pH 6, modulator: ogerin", "value": -0.523}, {"measurement": "cAMP reporter score", "setting": "[1]; pH 6.5, modulator: ogerin", "value": -0.198}, {"measurement": "surface expression score", "setting": "[2]", "value": 0.14}]}]}
